In PubChem BioAssay AID894 (National Center for Advancing Translational Sciences (NCATS), 2007):
Out of some 150,000 compounds screened, about 6,500 (4.3%) were called active. Inconclusive results, whose numbers are uncertain, are shown with a selection of clear calls. Calls come from the whole dose curve; as a rule, active = well fitted inhibition curve with a large enough effect (not every such curve was filed as active); inconclusive = small, poorly fitted or top-dose-only effect, or another doubt; inactive = no such curve, though single readings can be large or run the other way. A potency beside an inconclusive call is a rough fit, not a confirmed value.

Target: 15-hydroxyprostaglandin dehydrogenase [NAD(+)] (Homo sapiens) (UniProt P15428)
Sequence of UniProt P15428 (P15428 whole entry, looked up): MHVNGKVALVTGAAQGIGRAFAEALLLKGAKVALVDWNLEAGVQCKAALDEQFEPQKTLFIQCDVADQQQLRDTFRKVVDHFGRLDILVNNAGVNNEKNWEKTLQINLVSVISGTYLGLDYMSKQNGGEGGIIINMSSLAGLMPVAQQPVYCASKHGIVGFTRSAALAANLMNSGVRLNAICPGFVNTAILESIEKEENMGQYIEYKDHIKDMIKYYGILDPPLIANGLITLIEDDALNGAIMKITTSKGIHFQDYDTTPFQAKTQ
Assay: qHTS Assay for Inhibitors of HPGD (15-Hydroxyprostaglandin Dehydrogenase)
Details: purified HPGD, NADH fluorescence kinetic, PGE2 substrate; activity change, negative = inhibition: hits give low values
Summary of the method: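 20 nM HPGD preincubated 15 min at room temperature with compound in 50 mM Tris-HCl pH 8, 0.01% Tween 20. Started with 1 mM NAD+ and 30 uM prostaglandin E2; NADH fluorescence (360/450 nm) read 5 times over 30-s intervals, last minus first.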
% is set by controls: 0 for no effect and ±100 for the full control effect; potency is the fitted concentration of half-maximal effect; tags give direction and shape of the fitted curve.

Activity change, negative = inhibition, inactive:
CCCCCCCC1=Cc2ccccc2C(CC(C)=O)N1C(=O)OC (stereo unspecified) -7.62%, COC(=O)Cc1c(O)ccn(Cc2ccc(F)cc2)c1=O -9.71%, CCCCCCCCN -15.7%, O=c1c2ccccc2nc2n1C(CSCc1ccc(Cl)cc1)CS2 (stereo unspecified) -12%, O=c1cc(C(F)(F)C(F)F)oc2ccccc12 -10.4%, C[C@H]1Cc2c(COc3ccccc3)nc3c(c2CO1)CN(C(=O)c1cccnc1)CC3 -3.09%, O=C1C=C(c2ccccc2)C[C@H](c2cccs2)[C@H]1n1cnc([N+](=O)[O-])c1 -0.619%, COC(=O)C1=C(C)N(C2CCCCC2)C(=O)C1 1.92%, Cc1cccc(NC(=O)Cn2cnc3ccc(S(=O)(=O)N4CCC(C)CC4)cc3c2=O)n1 -14.2%, Cc1cccc(N2CCN(C(=O)c3ccc(NS(=O)(=O)c4c(C)noc4C)cc3)CC2)c1C -21.2%, CSCC[C@H](NC(=O)C(C)Oc1ccc(Cl)cc1)c1nc2ccccc2[nH]1 (stereo partly specified) -8.34%, O=C(C1CCN(S(=O)(=O)c2cccc3cccnc23)CC1)N1CCn2c1nc1ccccc12 -8.64%, COc1ccc(CNCc2ccco2)cc1OCc1ccccc1 -11.4%, O=C(NC(Nc1nc2ccc([N+](=O)[O-])cc2s1)(C(F)(F)F)C(F)(F)F)c1ccccc1 -5.24%

Potency, inconclusive:
CCCn1c(O)c(CN2CCCC(C)C2)c(C)c(C#N)c1=O (stereo unspecified) 35.5 µM [inhibitor, partial curve], COc1cccc(C2c3c(oc4ccccc4c3=O)C(=O)N2CCCN(C)C)c1OC (stereo unspecified) 39.8 µM [inhibitor, partial curve], Cn1c(=O)c2c(nc(SC3C(=O)CC(C)(C)CC3=O)n2C)n(C)c1=O 28.2 µM [inhibitor, partial curve, poor fit], Cn1c(-c2ccccc2)c[n+]2c1-c1ccccc1C2 31.6 µM [inhibitor, partial curve], Cc1nc2sc(C(c3ccco3)N3CCN(C(c4ccccc4)c4ccccc4)CC3)c(O)n2n1 (stereo unspecified) 28.2 µM [inhibitor, partial curve], CC(C)c1nc2sc3c(=O)[nH]cnc3c2c2c1CCC2 28.2 µM [inhibitor, partial curve], Cc1cccc(-n2cnc3c(c2=O)c2nc4ccccc4nc2n3Cc2ccco2)c1 25.1 µM [inhibitor, partial curve], COc1ccc(-c2ccc(-c3noc(-c4ccc(OC)c(OC)c4)n3)c(OC)n2)cc1 12.6 µM [inhibitor, partial curve], CCCCn1c(NS(=O)(=O)c2ccccc2)c(S(=O)(=O)c2ccc(C)cc2)c2nc3ccccc3nc21 31.6 µM [inhibitor, partial curve], CC(=O)Oc1ccc(C(=O)[C@H]2[C@H]3C(=O)N(c4cccc5ccccc45)C(=O)[C@H]3[C@@H]3C=CC=NN32)cc1 39.8 µM [inhibitor, single point], COc1ccc(C2CC(c3ccccc3)=NN2C(=O)COC(=O)c2cc(S(=O)(=O)N3CCOCC3)ccc2F)cc1 (stereo unspecified) 25.1 µM [inhibitor, partial curve], Cc1cccc(C(C)C)c1NC(=O)c1ccc(COc2ccc3c(C)cc(=O)oc3c2)cc1 14.1 µM [inhibitor, partial curve], CCCc1ccc(-c2cc(C(=O)NCCc3ccc(S(N)(=O)=O)cc3)c3ccccc3n2)cc1 28.2 µM [inhibitor, partial curve], C=CCNC(=O)COc1ccc(Br)cc1Cl 39.8 µM [inhibitor, single point], O=C(OCC(O)CO)c1ccccc1Nc1ccnc2cc(Cl)ccc12 (stereo unspecified) 35.5 µM [inhibitor, partial curve], COC(=O)c1[nH]c2cccc(Cl)c2c1NC(=O)CN1CCCCC1C (stereo unspecified) 28.2 µM [inhibitor, partial curve], O=C(O)c1ccc(N[C@H](c2ccccc2)c2ccc3cccnc3c2O)cc1 3.55 µM [inhibitor, partial curve], CCOc1ccc(/C=N/NC(=O)c2ccccc2NC(=O)c2ccc(OC)cc2)cc1 31.6 µM [inhibitor, single point], CCOC(=O)N1CCN(S(=O)(=O)c2ccc(C(=O)Nc3nc4ccc(F)cc4s3)cc2)CC1 31.6 µM [inhibitor, partial curve], Cc1ccc2nc(-c3ccc(NC(=O)CN(c4ccccc4C)S(C)(=O)=O)cc3)sc2c1 28.2 µM [inhibitor, partial curve], CC(C)N(C(=O)CSc1ncnc2sc(-c3ccccc3)cc12)C(C)C 28.2 µM [inhibitor, partial curve], CCOc1ccc(-c2nc(C#N)c(N3CCN(Cc4ccccc4)CC3)o2)cc1 28.2 µM [inhibitor, partial curve], O=C1CC(c2ccccc2)CC(=O)C1Sc1ccc(Cl)cc1 (stereo unspecified) 12.6 µM [inhibitor, partial curve], CCN(CC)c1ccc(/C=N/Nc2nc3ccccc3[nH]2)c(O)c1 31.6 µM [inhibitor, partial curve, poor fit], Cc1nn(-c2ccccc2)c2nc(C(F)(F)F)[nH]c(=O)c12 35.5 µM [inhibitor, partial curve], COC(=O)c1cc(OC)c(OC)cc1NC(=O)c1cc(-c2ccccc2)nc2ccccc12 25.1 µM [inhibitor, partial curve], Cc1ccc(S(=O)(=O)/N=C(\N)Nc2nc(C)c3ccccc3n2)cc1 28.2 µM [inhibitor, partial curve], COc1ccccc1NC(=O)C1=C(C)NC2=C(C(=O)CCC2)C1c1ccc2c(c1)OCO2 (stereo unspecified) 31.6 µM [inhibitor, single point], CCOC(=O)CSc1cccc2cccnc12 35.5 µM [inhibitor, partial curve], Cc1ccc(CNC(=O)/C=C/c2cccs2)cc1 14.1 µM [inhibitor, partial curve], O=c1c(Cc2ccc(Cl)cc2Cl)c(O)ccn1Cc1ccc(Cl)cc1 31.6 µM [inhibitor, partial curve, poor fit], CC(=O)N1CCN(C(=O)CC2OC(=O)c3ccccc32)CC1 (stereo unspecified) 31.6 µM [inhibitor, single point], N#Cc1cc2c(=O)n3ccccc3nc2n(Cc2ccco2)c1=NC(=O)c1ccco1 35.5 µM [inhibitor, partial curve], Nc1c(-c2ccccc2)c(CSc2nc3ccccc3[nH]2)nn1-c1cccc(Cl)c1 39.8 µM [inhibitor, partial curve], CC(C)c1ccc(C2C(C#N)=C(N)N3C(=C2C#N)Sc2ccccc23)cc1 (stereo unspecified) 20 µM [inhibitor, partial curve], N#CC1=C(N)N(c2ccccc2)C(c2ccccc2)C1(C#N)C#N (stereo unspecified) 22.4 µM [inhibitor, partial curve], CCCc1cc(=O)oc2cc(OCC(=O)OC)cc(OCC(=O)OC)c12 14.1 µM [inhibitor, partial curve], COCCn1c(=NC(=O)c2sc3ccccc3c2Cl)sc2cc(S(N)(=O)=O)ccc21 31.6 µM [inhibitor, partial curve], CCOC(=O)c1c(C2CC2)csc1NC(=O)COC(=O)CCS(=O)(=O)c1ccc(C)cc1 35.5 µM [inhibitor, single point], COc1ccc(C(=O)N2CCC[C@@]3(CCN(Cc4ccccc4)C3)C2)cc1 12.6 µM [inhibitor, partial curve], CCCCc1c(C)c2ccc(OC)c(/C(C)=N\O)c2oc1=O 17.8 µM [inhibitor, partial curve], O=C(NCc1nc(-c2ccccc2)no1)c1ccc(Br)o1 35.5 µM [inhibitor, partial curve], C/C=C(/C)C(=O)OC1Cc2c(ccc3ccc(=O)oc23)OC1(C)C (stereo unspecified) 25.1 µM [inhibitor, partial curve, poor fit], C#CCn1c(=NC(=O)c2cccs2)sc2cccc(OCC)c21 25.1 µM [inhibitor, partial curve]

Potency, active:
CCN(CC)C(NC(=O)Cc1ccccc1)C(Cl)(Cl)Cl (stereo unspecified) 14.1 µM, Cc1cccc(Cn2cnc3c(nnn3Cc3ccccc3F)c2=O)c1 15.8 µM, CN(Cc1nc(-c2ccccn2)no1)S(=O)(=O)c1ccc(Br)cc1 22.4 µM, CC1CN(c2ccc(Oc3ccccc3)cc2)c2nc3c(c(=O)[nH]c(=O)n3C)n2C1 (stereo unspecified) 35.5 µM, C=CCn1c(SCc2nc3ccccc3nc2C)nnc1-c1ccoc1C 25.1 µM, O/N=C(\c1ccc(Cl)cc1)c1cc2ccccc2o1 25.1 µM, Cc1ccc(SCC(=O)NCC(C)C)cc1 15.8 µM, Cc1cccc(/C(N)=N/OC(=O)N2c3ccccc3Sc3ccccc32)c1 17.8 µM
